# From the supplement of paper PMC8728848
# The list shows a part of the results.
# How the values were obtained:
# Assay in all cases: glycan array binding signal (z-score within array); higher = stronger binding
# Conditions in all cases: glycan notation: IUPAC condensed, linker removed
# [1] = biological target: Neu5Ac(a2-8)Neu5Ac(a2-6)Glc
# Summary of the method: (§1)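 The binding signal is a Z-score computed within each array. Data were drawn from 3228 arrays in the Consortium for Functional Glycomics database, restricted to those with a known protein sequence. Scores were averaged over arrays of the same protein sequence at different concentrations or buffers, and over linkers, and negative values can be taken as non-binding.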
# [2] = biological target: Neu5Ac(a2-8)Neu5Ac(a2-8)Neu5Ac
# Summary of the method: as §1
# [3] = biological target: Neu5Ac(a2-8)Neu5Ac(a2-8)Neu5Ac(a2-3)Gal(b1-4)Glc
# Summary of the method: as §1
# [4] = biological target: Neu5Ac(a2-8)Neu5Ac(a2-8)Neu5Ac(a2-6)Gal
# Summary of the method: as §1
# [5] = biological target: Neu5Ac(a2-8)Neu5Ac(a2-8)Neu5Ac(a2-8)Neu5Ac
# Summary of the method: as §1
# [6] = biological target: Neu5Ac(a2-8)Neu5Ac(a2-8)Neu5Ac(a2-8)Neu5Ac(a2-8)Neu5Ac
# Summary of the method: as §1
# [7] = biological target: Neu5Ac(a2-8)Neu5Ac(a2-8)Neu5Ac(a2-8)Neu5Ac(a2-8)Neu5Ac(a2-8)Neu5Ac
# Summary of the method: as §1
# [8] = biological target: Neu5Ac(a2-8)Neu5Ac(a2-8)Neu5Ac(a2-8)Neu5Ac(a2-8)Neu5Ac(a2-8)Neu5Ac(a2-8)Neu5Ac
# Summary of the method: as §1
# [9] = biological target: Neu5Ac(a2-8)Neu5Ac(a2-8)Neu5Ac(a2-8)Neu5Ac(a2-8)Neu5Ac(a2-8)Neu5Ac(a2-8)Neu5Ac(a2-8)Neu5Ac
# Summary of the method: as §1
# [10] = biological target: Neu5Ac(a2-8)Neu5Ac(a2-8)Neu5Ac(a2-8)Neu5Ac(a2-8)Neu5Ac(a2-8)Neu5Ac(a2-8)Neu5Ac(a2-8)Neu5Ac(a2-8)Neu5Ac
# Summary of the method: as §1
# [11] = biological target: Neu5Ac(a2-8)Neu5Ac(a2-8)Neu5Ac(a2-8)Neu5Ac(a2-8)Neu5Ac(a2-8)Neu5Ac(a2-8)Neu5Ac(a2-8)Neu5Ac(a2-8)Neu5Ac(a2-8)Neu5Ac
# Summary of the method: as §1
# [12] = biological target: Neu5Ac(a2-9)Neu5Ac(a2-3)Gal(b1-4)Glc
# Summary of the method: as §1
# [13] = biological target: Neu5Ac(b2-3)Gal(b1-4)Glc
# Summary of the method: as §1
# [14] = biological target: Neu5Ac(b2-6)Gal(b1-4)Glc
# Summary of the method: as §1
# [15] = biological target: Neu5Ac9Ac(a2-3)Gal(b1-3)[Fuc(a1-4)]GlcNAc
# Summary of the method: as §1
# [16] = biological target: Neu5Ac9Ac(a2-3)Gal(b1-4)[Fuc(a1-3)]GlcNAc
# Summary of the method: as §1
# [17] = biological target: Neu5Ac9Ac(a2-3)Gal(b1-4)[Fuc(a1-3)]GlcNAc(b1-3)Gal
# Summary of the method: as §1
# [18] = biological target: Neu5Ac9Ac(a2-6)Gal(b1-4)GlcNAc
# Summary of the method: as §1
# [19] = biological target: Neu5Ac9Me(a2-3)Gal(b1-4)Glc
# Summary of the method: as §1
# [20] = biological target: Neu5Gc(a2-3)Gal(b1-3)GlcNAc(b1-3)Gal(b1-4)Glc
# Summary of the method: as §1
# [21] = biological target: Neu5Gc(a2-3)Gal(b1-4)Glc
# Summary of the method: as §1
# [22] = biological target: Neu5Gc(a2-3)Gal(b1-4)[Fuc(a1-3)]GlcNAc(b1-3)Gal
# Summary of the method: as §1
# [23] = biological target: Neu5Gc(a2-6)Gal(b1-3)GlcNAc(b1-3)Gal(b1-4)Glc
# Summary of the method: as §1
# [24] = biological target: Neu5Gc(a2-6)Gal(b1-4)GlcNAc(b1-2)Man(a1-3)[Neu5Gc(a2-6)Gal(b1-4)GlcNAc(b1-2)Man(a1-6)]Man(b1-4)GlcNAc(b1-4)GlcNAc
# Summary of the method: as §1
# [25] = biological target: Neu5Gc(a2-6)GalNAc
# Summary of the method: as §1
# [26] = biological target: Rha(a1-6)Glc
# Summary of the method: as §1
# [27] = biological target: Xyl(a1-6)Glc(b1-4)[Xyl(a1-6)]Glc(b1-4)[Xyl(a1-6)]Glc(b1-4)Glc
# Summary of the method: as §1
# [28] = biological target: Xyl(b1-2)[Man(a1-3)][Man(a1-6)]Man(b1-4)GlcNAc(b1-4)GlcNAc
# Summary of the method: as §1
# [29] = biological target: Xyl(b1-2)[Man(a1-3)][Man(a1-6)]Man(b1-4)GlcNAc(b1-4)[Fuc(a1-3)]GlcNAc
# Summary of the method: as §1
# [30] = biological target: Xyl(b1-4)Xyl(b1-4)Xyl(b1-4)Xyl(b1-4)Xyl
# Summary of the method: as §1
# [31] = biological target: Xyl(b1-4)Xyl(b1-4)Xyl(b1-4)Xyl(b1-4)Xyl(b1-4)Xyl
# Summary of the method: as §1
binder,measurement,setting,value
"HysACBM (Streptococcus pneumoniae), Q54873 (protein) KNLVENGDFGQTEDGSSPWTGSKAQGWSAWVDQKNSADASTRVIEAKDGAITISSHEKLRAALHRMVPIEAKKKYKLRFKIKTDNKIGIAKVRIIEESGKDKRLWNSATTSGTKDWQTIEADYSPTLDVDKIKLELFYETGTGTVSFKDIELVEVADQLS",glycan array binding signal (z-score),[1],0.22
same,glycan array binding signal (z-score),[2],-0.091
same,glycan array binding signal (z-score),[3],-0.091
same,glycan array binding signal (z-score),[4],-0.091
same,glycan array binding signal (z-score),[5],-0.091
same,glycan array binding signal (z-score),[6],-0.091
same,glycan array binding signal (z-score),[7],-0.091
same,glycan array binding signal (z-score),[8],-0.091
same,glycan array binding signal (z-score),[9],-0.091
same,glycan array binding signal (z-score),[10],-0.091
same,glycan array binding signal (z-score),[11],-0.091
same,glycan array binding signal (z-score),[12],-0.091
same,glycan array binding signal (z-score),[13],-0.091
same,glycan array binding signal (z-score),[14],-0.087
same,glycan array binding signal (z-score),[15],-0.091
same,glycan array binding signal (z-score),[16],-0.091
same,glycan array binding signal (z-score),[17],-0.091
same,glycan array binding signal (z-score),[18],-0.091
same,glycan array binding signal (z-score),[19],-0.091
same,glycan array binding signal (z-score),[20],-0.091
same,glycan array binding signal (z-score),[21],-0.091
same,glycan array binding signal (z-score),[22],-0.091
same,glycan array binding signal (z-score),[23],-0.091
same,glycan array binding signal (z-score),[24],-0.091
same,glycan array binding signal (z-score),[25],-0.091
same,glycan array binding signal (z-score),[26],-0.091
same,glycan array binding signal (z-score),[27],0.01
same,glycan array binding signal (z-score),[28],-0.091
same,glycan array binding signal (z-score),[29],-0.091
same,glycan array binding signal (z-score),[30],-0.091
same,glycan array binding signal (z-score),[31],-0.091
